In the supplement of paper PMC11417369:
Some of the results follow.

system: PfHDP1 homeodomain (GST-tagged); assay: gcPBM binding intensity (ln(normalized median fluorescence intensity)); higher = stronger DNA binding
Summary of the method: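 Using an Agilent 4 × 180k array, primer-extended double-stranded 36-bp intergenic genomic probes and negative controls were exposed for 1 h to GST-fused P. falciparum DNA-binding domains expressed in E. coli. Binding was carried out in 1× PBS with 1% milk, 0.2 mg/ml BSA, 0.5% salmon testes DNA and 0.03% Triton X-100, and protein was detected with Alexa488 anti-GST antibody and a 488 nm scan. Binding intensity is the highest Masliner-normalised natural-log median intensity across replicate spots of either probe orientation.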

Sequence	gcPBM binding intensity (ln)
ATTACATATGTCGCTTGTACGCATAATTTTTTTATA [XGTACX_site5782]	7.01
ATTTAAAAAAAAAGACGTACATTTATATAGAATCCT [XGTACX_site6457]	6.24
CAATTTATAAAGAAAACACACATATACCTATATACA [CACACA_site6710]	6.44
TTTATATTTAAAGAAACATGCATTTATCATATATAC [TGCATGCA_site173]	6.42
TACACGCATAAACACACACACACACCCATATATATA [CACACA_site8114]	7.06
AAAAAAATAAAATACAAAATGGCTATACAAAATAAA [GTGCAC_negctrl_site535]	6.64
TTTGTTGACGAACACACACACATACATATTTATATA [CACACA_site7141]	6.8
TCTATAATATTTTTCACACACCATTTCCTTAAACAC [CACACA_site6747]	6.78
TTATAAATAAAAAGAGTGCAATTATAAATATATATA	8.65
AAATAAAATATGAACAGTACTTTTGATATAACCATT [XGTACX_site1873]	6.66
AAAAAAATACAAATATGTACACATATATATTTAAAA [XGTACX_site4729]	6.31
TTATTCATACAATATCGTACATATATATATATATAT [XGTACX_site1185]	9.24
TCTAATCTGGAGAAAAGTACATAGTATCTGGTAACA [XGTACX_site2540]	6.34
GTACACCTATAATATACACACAACAAATATGCACAT [CACACA_site6603]	10.2
ATTATATATATATATACACACACATATATATATATA [CACACA_site8373]	9.24
GGAATAACCGGACACACACACACATATATATATATA [CACACA_site5874]	9.34
ATTTAAAATAGAAGTTATATTTATATGGGTGAAAAA [GTGCAC_negctrl_site296]	6.37
CAAAACAAAACGTATGCACACAATTAAAATATTAAA [CACACA_site5815]	9.56
AAATGTTGAGCAGTACAAAAAAAAAAAAAAAAAAAA [GTGCAC_negctrl_site518]	6.78
AAGATACCAATGAAATGTACATATATATAAATATAA [XGTACX_site2135]	6.52
CATTTATATAAAAGAACACACATATAAAATATTATT [CACACA_site3601]	6.49
TTTTTTTTTTAATTGGGTACATATATAATTTAAGAA [XGTACX_site2732]	6.27
TATATATTATAAAATTGTACATATATTAAATTTTTT [XGTACX_site5852]	6.33

Sequence	gcPBM binding intensity (ln)
AATAGTCGGGTGCATACACACCTTAAATATAATATA [CACACA_site8271]	7.67
TTATAAAATATTTATGCATGTGAAGAATATTATAAA [TGCATGCA_site1047]	6.54
GAAAAAAGTATCAAGGTGCGTATATACATCAAAATA	7.35
GGTGGGGAGGAGTAATGTACAAATTAACATATTATG [XGTACX_site6666]	8.02
TTCTTACATGAGTGTACACACTTTTTTTCAGAAAAT [CACACA_site4215]	9.04
ACACATAAATGAATAAATAAATAAATATAAATATAA [CACACA_negctrl_site1784]	6.21
ATATCATTTTCCTGCACACATAAATTTATATAATAT [CACACA_site1048]	8.7
TTTTGTTGAAAAGTAAGATATTCCAACATGTTTTTA [CACACA_negctrl_site391]	6.13
TAACTAATATATAAAACACACATCATAAAAATATAA [CACACA_site768]	6.69
AAAAGAACAATGAAGTGTACTAATAATTATTTATGT [XGTACX_site6649]	6.68
TTTTATCATCTTTTTACATTATGTATAAATATTTTC [CACACA_negctrl_site206]	6.78
AGCAAAACATAAAATAGTACACATTTAACAAAAAAA [XGTACX_site2921]	6.54
ATATAATATATTTTTGAACACACAATATATATATAT [CACACA_site9368]	8.82
AAAAATGAAAGTAAGACATGCATGGAATTTTTTTTA [TGCATGCA_site347]	6.89
TTTTTTTTTTATGAAAGTACATATGAAAAATACGAA [XGTACX_site3451]	6.53
ATATATGTGTATGTATGTACTTATATTTTTTTTTAT [XGTACX_site1733]	6.27
TCCGTTATATATGTGTGTACATATAATATATCCTCA [XGTACX_site2588]	6.8
GCAAATCAATTTTTTTTTAAAACTCATTTTTTCGTT [CACACA_negctrl_site1136]	6.4
AACGTGTGGAGAATTATAAATGAGTAAAAAATATAT [XGTACX_negctrl_site562]	6.74
GGGGGGAGGGTGAATACACACGTAATAATCATAAAC [CACACA_site8502]	8.77
ATTAAATAAAAAAACACACACATATATACCTATATA [CACACA_site5837]	6.72
CAAAACATTTTATCTACACACATATATAAATAAATA [CACACA_site3220]	6.36
